Experimental data as given in PubChem BioAssay AID894 (National Center for Advancing Translational Sciences (NCATS), 2007).
In all, about 150,000 compounds went through this assay and about 6,500 (4.3%) were called active. The inconclusive results got no clear call from the source; some entries with a clear call stand among them for comparison. The call rests on the fitted dose curve; in most records, active means well fitted inhibition curve with a large enough effect (not every such curve was filed as active); inconclusive means small, poorly fitted or top-dose-only effect, or another doubt; inactive means no such curve, though single readings can be large or run the other way. Potencies of inconclusive entries are left out as doubtful fits.

What follows are compounds tested against 15-hydroxyprostaglandin dehydrogenase [NAD(+)] (Homo sapiens) (UniProt P15428) (assay: qHTS Assay for Inhibitors of HPGD (15-Hydroxyprostaglandin Dehydrogenase)). Conditions: purified HPGD, NADH fluorescence kinetic, PGE2 substrate; activity change, negative = inhibition: hits give low values.
Outline: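 NADH formation kinetics: reaction with 30 uM PGE2 and 1 mM NAD+ (final), 20 nM enzyme, Tris-HCl pH 8 with Tween 20, after 15 min compound preincubation at room temperature. Fluorescence change, last versus first of five reads.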
On the % scale 0 is the no-effect control and ±100 the full control effect; potency means the concentration at half of the fitted maximal effect; tags describe the fitted curve by direction and shape.

UniProt P15428, sequence (P15428 whole entry, looked up): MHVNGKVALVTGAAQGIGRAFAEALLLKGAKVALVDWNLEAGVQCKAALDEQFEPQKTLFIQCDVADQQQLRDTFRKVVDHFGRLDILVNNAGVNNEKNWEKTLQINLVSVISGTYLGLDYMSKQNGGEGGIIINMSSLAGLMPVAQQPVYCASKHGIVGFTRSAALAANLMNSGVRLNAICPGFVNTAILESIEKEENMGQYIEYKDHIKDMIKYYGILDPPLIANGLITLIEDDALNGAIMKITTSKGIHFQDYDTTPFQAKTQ

| Compound | Potency | activity change, negative = inhibition |
| --- | --- | --- |
| OCCOCCNc1ncnc2sc(-c3ccccc3)cc12 | inconclusive [inhibitor, partial curve] | – |
| CCOC(=O)C(O)(CC(=O)c1ccc(OC)cc1)C(F)(F)F (stereo unspecified) | – | inactive: -3.65% |
| CC(C)CC(=O)NC(=S)N1CCN(c2ccc([N+](=O)[O-])cc2Cl)CC1 | – | inactive: -8.77% |
| O=[N+]([O-])c1cccc(CSc2nnc(Cc3ccccc3)n2-c2ccc(F)cc2)c1 | – | inactive: 2.89% |
| COc1ccc(-c2nc3c(c(=O)[nH]c(=O)n3Cc3ccccc3)n2C)cc1 | inconclusive [inhibitor, partial curve] | – |
| CC(C)Cc1ccc(/C(=N/O)C(=O)O)s1 | inconclusive [inhibitor, partial curve, poor fit] | – |
| Fc1cccc(NC(=S)NCCN2CCOCC2)c1 | – | inactive: -5.43% |
| Cc1cc(C)c2[nH]c(=O)c(C(c3nnnn3CC3CCCO3)N3CCC(C)CC3)cc2c1 (stereo unspecified) | – | inactive: -7.55% |
| O=C(c1ccc(Cl)c([N+](=O)[O-])c1)N(Cc1cccc(Cl)c1)C1CCS(=O)(=O)C1 (stereo unspecified) | – | inactive: -22.8% |
| CCn1cc(C(=O)O)c(=O)c2cc(F)c(N3CCN(C)CC3)cc21 | inconclusive [inhibitor, partial curve] | – |
| CCSc1nnc(-c2ccc(Cl)cc2Cl)o1 | active: 14.1 µM | – |
| CCOC(=O)N1CCN(C(=O)c2ccc(N(Cc3ccccc3)S(C)(=O)=O)cc2)CC1 | – | inactive: -6.62% |
| COc1cc2cc(CN(CCN3CCCC3)C(=O)Nc3ccccc3Cl)c(=O)[nH]c2cc1OC | inconclusive [inhibitor, partial curve] | – |
| Cc1ccc(C(=O)N/C(=C\c2cccs2)c2nc3ccccc3[nH]2)cc1 | inconclusive [inhibitor, partial curve] | – |
| Cc1cc(-c2n[nH]c(=S)n2/N=C/c2ccccc2[N+](=O)[O-])n[nH]1 | – | inactive: -25.5% |
| c1cncc(-c2nc3cc4ccccc4cc3[nH]2)c1 | inconclusive [inhibitor, partial curve] | – |
| Cc1cc(=O)oc2cc3c(cc12)OCCO3 | inconclusive [inhibitor, single point] | – |
| CC[C@@H]1Cn2c(c3nc(-c4ccccc4)nc-3n(C)c2=O)N1 | inconclusive [inhibitor, single point] | – |
| O=C(c1cccs1)c1coc2ccc(O)cc12 | inconclusive [inhibitor, partial curve] | – |
| C=CCSc1nc2c(c(=O)[nH]c(=O)n2C)n1CC | active: 14.1 µM | – |
| CCOC(=O)c1nc(-c2ccccc2)oc1N(C)C | inconclusive [inhibitor, partial curve] | – |
| COc1ccccc1C1=Nn2c(nnc2C2CCCCC2)SC1 | inconclusive [inhibitor, partial curve] | – |
| COCCCNC(=O)c1cc2c(=O)n(C)c3ccccc3c2n1C | inconclusive [inhibitor, single point] | – |
| COc1ccccc1C(=O)O/N=C(\N)c1ccccc1Cl | active: 28.2 µM | – |
| CC(=O)NNC1=Nc2ccccc2N(C)C(C)C1 (stereo unspecified) | – | inactive: 0.367% |
| CC1=CC(C)(C)Nc2ccc(CSc3ccccc3)cc21 | inconclusive [inhibitor, partial curve] | – |

| Compound | Potency | activity change, negative = inhibition |
| --- | --- | --- |
| COCCNC(=O)COc1ccc(C)cc1C | active: 14.1 µM | – |
| COc1ccc(Nc2oc(COc3ccccc3OC)nc2C#N)cc1 | active: 14.1 µM | – |
| O=S(=O)(Nc1ccc2oc(-c3ccccc3)nc2c1)c1ccccc1 | inconclusive [inhibitor, partial curve] | – |
| COc1ccc(C2CC(=O)c3sc(NC(C)=O)nc3C2)cc1 (stereo unspecified) | inconclusive [inhibitor, single point] | – |
| COC(=O)c1sc(Nc2ccccc2)nc1C | active: 22.4 µM | – |
| CCOC(=O)CCc1nc2ccccc2[nH]1 | – | inactive: -0.981% |
| Cc1ccc(C(C[N+](=O)[O-])n2nc(C)cc2C)cc1 (stereo unspecified) | active: 15.8 µM | – |
| CCC1(C)Cc2c(sc(NC(=O)CCC(=O)O)c2C#N)CO1 (stereo unspecified) | – | inactive: -8.44% |
| O=C(Nc1cccc(C(F)(F)F)c1)c1cc2ncc(Br)cn2n1 | inconclusive [inhibitor, partial curve] | – |
| CCOc1cc(/C=C(/C#N)c2nc3ccccc3[nH]2)ccc1OCc1ccc(C(=O)O)o1 | inconclusive [inhibitor, partial curve] | – |
| CC[C@@H]1C(c2ccccc2)=NN(c2ccccc2)[C@H]1C(=O)N1CCOC1=O | inconclusive [inhibitor, partial curve] | – |
| CC1CCN(S(=O)(=O)c2ccc(Br)s2)CC1 | – | inactive: -19.1% |
| O=C(NCCc1ccncc1)Nc1ccccc1Cl | – | inactive: 0.297% |
| COc1cccc(-n2nnc3c(=O)n(CC(=O)N4CCCc5ccccc54)cnc32)c1 | active: 22.4 µM | – |
| CCCCSC1=C(C#N)C(c2ccccc2C)CC(=O)N1 (stereo unspecified) | inconclusive [inhibitor, partial curve] | – |
| Cc1cccc(OCC(=O)NC(=S)Nc2ccc(S(=O)(=O)NC3CCCCC3)cc2)c1 | inconclusive [inhibitor, partial curve] | – |
| O=C(CSc1nnnn1-c1ccc(O)cc1)Nc1cccc(S(=O)(=O)N2CCCC2)c1 | – | inactive: -6.13% |
| Cc1ccc(Nc2n[nH]c(C)c2[N+](=O)[O-])cc1 | – | inactive: -8.37% |
| O=C(NCc1cccs1)c1ccccc1F | active: 20 µM | – |
| COc1ccc(/C=N/NC(=O)c2ccc(COc3ccccc3Cl)o2)cc1 | inconclusive [inhibitor, partial curve] | – |
| Cn1c(=O)c2[nH]c(-c3ccc(S(=O)(=O)O)cc3)nc2n(C)c1=O | inconclusive [inhibitor, partial curve] | – |
| COc1ccc(Cl)cc1NC(=S)N(CCCN1CCOCC1)Cc1cn(C)c2ccccc12 | active: 28.2 µM | – |
| CC(=O)N(C)C1=C(N2CCOCC2)C(=O)c2ccccc2C1=O | – | inactive: -6.66% |
| CCCCNC(=O)COC(=O)c1c2c(nc3ccccc13)/C(=C/c1cccs1)CC2 | inconclusive [inhibitor, partial curve] | – |
| O=C(CN(Cc1ccc2c(c1)OCO2)C(=O)CNC(=O)c1ccco1)NC1CCCCC1 | – | inactive: -7.39% |
| O=C(O)c1cccc(Cn2c(Cl)c(/C=N/NC(=O)c3ccccc3Cl)sc2=O)c1 | active: 28.2 µM | – |

| Compound | Potency | activity change, negative = inhibition |
| --- | --- | --- |
| Cc1cc(C)c2oc(-c3ccc(Cl)c(NC(=O)c4ccc(C#N)cc4F)c3)nc2c1 | inconclusive [inhibitor, full curve] | – |
| CC1=CC(C)(C)N(S(=O)(=O)c2ccc(C)cc2)c2ccc(C)cc21 | – | inactive: -5.06% |
| NNC(=O)CCSc1ccccc1 | – | inactive: -0.813% |
| COc1ccc(NC(=O)c2sccc2SCc2cccc(C(F)(F)F)c2)cc1 | inconclusive [inhibitor, single point] | – |
| Cc1cccc2[nH]c3c(N4CCC5(CC4)OCCO5)ncnc3c12 | inconclusive [inhibitor, partial curve] | – |
| CCOC(=O)c1sc(=S)n(-c2cccc(C(F)(F)F)c2)c1SC | – | inactive: -19.2% |
| COc1cc(CN2CCC(C(=O)N3CCCC(C)C3)CC2)cc(OC)c1O (stereo unspecified) | – | inactive: -2.98% |
| COc1cc(-c2c(C#N)c(=O)[nH]c3c2c(C)nn3-c2ccccc2)ccc1O | inconclusive [inhibitor, partial curve] | – |
| CCOC(=O)c1sc2ccccc2c1OC(=O)c1ccccc1 | – | inactive: -7.8% |
| COC(=O)CC1C(=O)NCCN1C(=O)CSc1nnc(Nc2ccc(OC)cc2)s1 (stereo unspecified) | inconclusive [inhibitor, partial curve] | – |
| O=C(CSc1nc(-c2ccco2)cc(C(F)(F)F)n1)NC1CCCC1 | active: 14.1 µM | – |
| O=C1CSC(c2cn(-c3ccccc3)nc2-c2cc3ccccc3o2)N1Cc1ccccc1 (stereo unspecified) | inconclusive [inhibitor, partial curve] | – |
| COc1ccccc1N(C(=O)c1ccncc1)c1nc(-c2ccc([N+](=O)[O-])cc2)cs1 | – | inactive: -16.1% |
| Cc1ccc(C(=O)OCC(=O)NCc2cccs2)cc1 | inconclusive [inhibitor, single point] | – |
| COc1ccc(N=C2C(=Nc3ccc(OC)cc3)N(c3ccc(OC)cc3)C(=S)N2C(=O)c2ccc(OC)cc2)cc1 | – | inactive: -10.5% |
| COC(=O)c1ccccc1OCCCOc1ccc(C=O)cc1OC | inconclusive [inhibitor, single point] | – |
| CCOCC(=O)Nc1nnc(COc2ccc(Cl)cc2)s1 | active: 11.2 µM | – |
| O=[N+]([O-])c1ccc(-c2cnc(SC(c3ccccc3)c3ccccc3)[nH]2)cc1 | inconclusive [inhibitor, single point] | – |
| O=C(Nc1nnc(-c2ccc(F)cc2)s1)C1CCN(S(=O)(=O)c2ccc(Cl)cc2)CC1 | – | inactive: -0.957% |
| O=C(Cc1cccs1)Nc1cccnc1 | – | inactive: -5.73% |
| CC1CCN(CC(O)COCCOc2ccc(Br)cc2)CC1 (stereo unspecified) | – | inactive: -3.89% |
| CCOC(=O)c1ccc(NC(=S)NNC(=O)C2(C)CC2(Cl)Cl)cc1 (stereo unspecified) | active: 28.2 µM | – |
| O=C(NC1CCCC1)c1cc(-c2cccs2)on1 | active: 12.6 µM | – |
| O=C(c1cc2c(ccc3ccccc32)oc1=O)N1CCCC1 | inconclusive [inhibitor, partial curve] | – |
